The source of these data is publication PMC5836133.

This is one part of the list. At the low end of the ranking the order means little.

This assay relates to T1, GST-NbGlk1(82-244).
T1 sequence: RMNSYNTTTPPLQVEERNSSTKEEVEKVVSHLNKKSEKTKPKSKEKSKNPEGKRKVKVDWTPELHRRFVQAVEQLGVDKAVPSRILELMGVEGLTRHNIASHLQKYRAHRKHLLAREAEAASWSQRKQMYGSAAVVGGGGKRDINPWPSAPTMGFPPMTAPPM
The assay is described as follows: protein-binding microarray.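 Also: rank-based score ranging −0.5 to +0.5 with E above 0.45 taken as significant binding.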 Particulars: NbGlk1 is a Golden2-like transcription factor of Nicotiana benthamiana; high values mean tight binding; most listed sequences are background and not binding sites; double strand, one strand shown.
In turn, ACCGAATG came in with a binding signal of -0.0831 E-score.

Take ATGGTGGC: the binding signal is -0.0809 E-score.

AGGCGTGG had a binding signal of -0.207 E-score.

For the sequence AGCGCTAA, the binding signal was -0.189 E-score.

For the sequence ATAAAAGC, the binding signal was 0.0351 E-score.

In the case of AATCCCTG, the binding signal is 0.283 E-score.

As for ACTACTCG, the binding signal was 0.0167 E-score.

In the case of AGTTTACC, the binding signal was -0.0752 E-score.

AGGGTACA showed a binding signal of -0.0829 E-score.

AGCGGATC registered a binding signal of 0.324 E-score.

Turning to ATGATAAA, the binding signal was determined as 0.171 E-score.

As to ACAATCGT, the binding signal was determined as 0.099 E-score.

In turn, AGCACCGG displayed a binding signal of -0.221 E-score.

ATCGGAGG returned a binding signal of -0.104 E-score.

AAGTCCAA showed a binding signal of -0.142 E-score.

Take ACGCACTA: the binding signal amounted to 0.0237 E-score.

In the case of AGTAAGTA, the binding signal stood at 0.193 E-score.

As for CACGTATA, the binding signal was 0.17 E-score.

With CAGATCGC, the binding signal amounted to 0.417 E-score.

On to AAAGGACT, for which the binding signal was -0.0666 E-score.

On to ATTTTGTA, for which the binding signal was determined as 0.298 E-score.

ATGGCGCA: the binding signal was -0.0516 E-score.

On to ACAATGTA, for which the binding signal came out at 0.0949 E-score.

As for CACTTACC, the binding signal was -0.155 E-score.

As to CAAACGAG, the binding signal came out at 0.0018 E-score.

AATTTCTA returned a binding signal of 0.152 E-score.

On to AAATGGTC, for which the binding signal was -0.176 E-score.

In turn, CACGGCGC displayed a binding signal of -0.264 E-score.

CACCCCTG yielded a binding signal of -0.163 E-score.

In the case of ATACATAG, the binding signal stood at 0.163 E-score.

Regarding CAAGGTCG, the binding signal was -0.0443 E-score.

As for ATGTCGGA, the binding signal was 0.000838 E-score.

In the case of ATAGTCGG, the binding signal is -0.0699 E-score.

In turn, ATTAGCCG gave a binding signal of -0.0312 E-score.

ATGCGCTC: the binding signal is -0.157 E-score.

For ATTATACC, the binding signal was found to be 0.0494 E-score.

Sequence ATTACGGA showed a binding signal of 0.366 E-score.

As to CAAAATCA, the binding signal came out at 0.314 E-score.

In turn, AATAACAC showed a binding signal of 0.0467 E-score.

In turn, AGGACTAC showed a binding signal of -0.286 E-score.

The sequence AACTCTAC had a binding signal of -0.0761 E-score.

As to ACATTACC, the binding signal is 0.0562 E-score.

The sequence CAAGTTTA gave a binding signal of -0.0779 E-score.

With CACAGCCG, the binding signal is -0.22 E-score.

Sequence ATATCGTC returned a binding signal of 0.328 E-score.

AAACCCTT had a binding signal of -0.17 E-score.

AAGTGTAG showed a binding signal of -0.0255 E-score.

Consider AGTACCAG, for which the binding signal is -0.222 E-score.

For ATAGAGGG, the binding signal is -0.0503 E-score.

Consider ATATTCGA, for which the binding signal amounted to 0.293 E-score.

Regarding ACGTACTG, the binding signal was -0.116 E-score.

The sequence AGGTATGA showed a binding signal of 0.0493 E-score.

Consider ACCGAGCA, for which the binding signal was -0.132 E-score.

As for AAGAACAG, the binding signal was -0.103 E-score.

With AACTTTCG, the binding signal came to 0.00927 E-score.

Sequence ATCATCTA showed a binding signal of 0.179 E-score.

Turning to ATTCTTTC, the binding signal came out at 0.202 E-score.

AGGAGAAA yielded a binding signal of 0.0307 E-score.

In turn, CACAGAGC displayed a binding signal of -0.247 E-score.

AAGATACA came in with a binding signal of 0.0411 E-score.

For the sequence AGCAGTGA, the binding signal is -0.15 E-score.

Regarding ACATGAGG, the binding signal is -0.0661 E-score.

AGGTGGAC registered a binding signal of -0.193 E-score.

ATTAGCGA: the binding signal amounted to 0.18 E-score.

In the case of AATTTTAG, the binding signal was found to be 0.222 E-score.

AAAGTTTA showed a binding signal of -0.0636 E-score.

In turn, AGCGTCCT had a binding signal of -0.358 E-score.

As to ACGACATA, the binding signal is -0.075 E-score.

AGGTGGGG displayed a binding signal of -0.228 E-score.

ACACCGGG: the binding signal was -0.078 E-score.

Sequence AAGCAACA displayed a binding signal of -0.104 E-score.

On to ACACATAG, for which the binding signal was 0.0105 E-score.

On to ATCAATGG, for which the binding signal is -0.0285 E-score.

Turning to ACAAAGGA, the binding signal came to 0.101 E-score.

Turning to AGACAGGA, the binding signal was -0.0939 E-score.

For the sequence ATTCTCAA, the binding signal turned out to be 0.329 E-score.

The sequence AGATGCTC showed a binding signal of 0.0454 E-score.

For AGCTGGGC, the binding signal was -0.225 E-score.

Consider ACTGTCGG, for which the binding signal was -0.172 E-score.

In turn, AATAAATG gave a binding signal of 0.083 E-score.

CAATCCTC: the binding signal stood at 0.269 E-score.

Sequence AGAAGAAA registered a binding signal of -0.0918 E-score.

AGTTTCGG returned a binding signal of -0.23 E-score.

In turn, ACCATAAG returned a binding signal of -0.143 E-score.

For ACTGTTAG, the binding signal was -0.0303 E-score.

For ACAGATCT, the binding signal is 0.356 E-score.

For ACAGCATA, the binding signal amounted to 0.121 E-score.

The sequence ACTGCTTA showed a binding signal of -0.0502 E-score.

AAGAAGTG showed a binding signal of -0.0817 E-score.

Regarding AACCGTAC, the binding signal is -0.144 E-score.

As to ACGTGCAA, the binding signal turned out to be 0.121 E-score.

Sequence CAGAATCC showed a binding signal of 0.447 E-score.

Take AATGTTGG: the binding signal is -0.0396 E-score.

Turning to ACCCTTCA, the binding signal is -0.235 E-score.

With CACTTATC, the binding signal was determined as 0.0299 E-score.

Sequence ATCTAGTG yielded a binding signal of 0.242 E-score.

ACATGGAA yielded a binding signal of -0.00796 E-score.

Sequence ACTACCAT yielded a binding signal of 0.0314 E-score.

The sequence CAAGAGTC had a binding signal of -0.264 E-score.

For the sequence ATTGAGCG, the binding signal is -0.0198 E-score.

The sequence AAAATTCC gave a binding signal of 0.201 E-score.

The sequence ACTTTGCG came in with a binding signal of -0.0202 E-score.

With AGCGGTTA, the binding signal was -0.027 E-score.

ATGTACTC: the binding signal was -0.0476 E-score.

As for AGAGCTCG, the binding signal is -0.166 E-score.

With CACTTCAG, the binding signal is -0.0681 E-score.

For AGGTCGCA, the binding signal is -0.263 E-score.

AGCTGCAA came in with a binding signal of -0.0367 E-score.

Regarding AGGTGAAC, the binding signal is -0.263 E-score.

With ATATTCAA, the binding signal turned out to be 0.213 E-score.
